Data published in PubChem BioAssay AID463173 (ICCB-Longwood Screening Facility, Harvard Medical School, 2010).
About 1,700 (3.3%) of roughly 52,000 compounds were called active. Rule as the data show it: active = survival mostly below about 52% (no sharp cut-off); inactive = mostly above about 56%. This is one part of the list.

The compounds below were run on Wild type (assay: growth inhibition of S. aureus wild type versus tarO mutant, primary screen, teichoic acid synthesis inhibitors, RN4220, OD600 (AID 463173)). Settings: S. aureus RN4220 wild type/DeltatarO growth, OD600, 18 h, hits give low values, screened at 18.75 µg/mL (by protocol).

SMILES	survival
Cc1ccc(-n2c(CCC(=O)O)ccc2-c2cccs2)cc1C	inactive: 64%
O=C(c1ccc(Cl)cc1)N1CCCC(c2nc(-c3ccc(Cl)cc3)no2)C1 (stereo unspecified)	inactive: 104%
CC1CCN(CC(=O)O)CC1	inactive: 100%
COc1cc(C2CC(=O)Nc3c2c(=O)[nH]c2nc4ccccc4n32)ccc1O (stereo unspecified)	inactive: 142%
CC1(C)C(=O)N(CC(=O)Nc2ccc(Cl)cc2)c2ccccc21	inactive: 59%
CC(C)CNC(=O)c1cccc(Cl)c1	inactive: 113%
CCC(C)NC(=O)c1cc2c(Cl)nc3ccc(C)cc3c2s1 (stereo unspecified)	inactive: 73%
Cc1ccc2c(c1)cc(C(=O)Nc1ccccc1C)n2C	inactive: 86%
CCc1nn2c(=O)cc(COC(=O)c3ccccc3NC(=O)COc3ccccc3C)nc2s1	inactive: 59%
COc1ccc(-c2nn3c(-c4ccc(OC)cc4)nnc3c3ccccc23)cc1	inactive: 73%
CCC(Cc1ccccc1)NC(=O)c1ccc2nc(N3CCC(C)CC3)sc2c1 (stereo unspecified)	inactive: 70%
Cc1ccc(NC(=O)Cn2c(=O)n(Cc3ccccc3)c(=O)c3c(C)c(C)sc32)c(C)c1	inactive: 90%
CC1CCCN(c2csc3ccc(F)cc3c2=O)C1 (stereo unspecified)	inactive: 73%
COc1ccc(OC(=O)c2nc(SCc3ccc(C)cc3)ncc2Cl)cc1	inactive: 86%
CCc1ccccc1NC(=O)C1=CC(c2ccc(OC)c(OC)c2)=NS(=O)(=O)N1C	inactive: 85%
Cc1cccc(C)c1OCC(=O)NCC1(N2CCOCC2)CCCCC1	inactive: 95%
CC1=NCC(=O)Nc2cc3c(cc21)OCCO3	inactive: 111%
CCCOc1ccc(C(=O)Nc2cccc(-c3nc4ccccc4[nH]3)c2)cc1	inactive: 49%
Cc1ccc(-c2nc(C)c(CCNC(=O)C(=O)Nc3ccc4c(c3)OCCO4)s2)cc1	inactive: 59%
COc1cc(N(C(=O)c2ccco2)C(C(=O)NC2CCCC2)c2ccc(C)cc2)ccc1-n1cnnn1 (stereo unspecified)	inactive: 105%
CCOc1cc(CN2CCN(CC3CC4C=CC3C4)CC2)ccc1OC (stereo unspecified)	inactive: 119%
CN1CCN(c2ncnc3c2cnn3-c2ccccc2)CC1	inactive: 99%
CC1(C)O[C@H]2[C@@H](O1)[C@@H](C(=O)Nc1ccccc1O)O[C@@H]1OC(C)(C)O[C@@H]12	inactive: 124%

SMILES	survival
CCc1ccc(-c2nn(CC(=O)NC3CCCC3)c3c2cnc2ccc(C)cc23)cc1	inactive: 32%
CCOc1cc(C2C(C(=O)OC)=C(C)NC3=C2C(=O)c2ccccc23)ccc1O (stereo unspecified)	inactive: 71%
O=C(Nc1ccc(N2CCC(N3CCCCC3)CC2)c(C(=O)O)c1)c1ccc(Br)cc1	inactive: 75%
CCC(CC)C(=O)Nc1cccc(-c2nc3cccnc3s2)c1C	inactive: 110%
COc1ccc(-n2nc3ccc(NC(=O)c4cc5ccccc5o4)cc3n2)cc1Cl	inactive: 139%
CCOc1ccc(CNC(=O)C2CCCN(c3nc4c(C)cc(C)cc4s3)C2)cc1 (stereo unspecified)	inactive: 91%
COc1ccccc1-c1nc(S(=O)(=O)c2ccc(Cl)cc2)c(N2CCCCCC2)o1	inactive: 70%
Cc1ccc(C(C)C)c(OCC(=O)Nc2c(C(=O)c3ccccc3)oc3ccccc23)c1	inactive: 80%
Cc1ccc(CN2C(=O)c3ccccc3C2C(=O)NC2CCCCCC2)cc1 (stereo unspecified)	inactive: 82%
Cc1ccc(NC(=O)c2sc3ccccc3c2Cl)cc1	inactive: 76%
CCOc1ccccc1NC(=O)c1c(C)cc(C)nc1SCC(=O)c1cccc(OC)c1	inactive: 80%
Cc1cc(O)c(C(c2ccc(F)cc2)N2CCCCC2)c(=O)n1Cc1ccco1 (stereo unspecified)	inactive: 71%
CCc1ccc(-n2nc(C)c3c(C(=O)Nc4cccc(C(F)(F)F)c4)cc(C)nc32)cc1	active: -3%
O=C(Nc1cccc(C(=O)N2CCCCC2)c1)c1nsc2ccccc12	inactive: 65%
Cc1cc(Nc2cccc(C(F)(F)F)c2)nc2ccc(NC(=O)c3ccc(N(C)C)cc3)cc12	inactive: 100%
CCOC(=O)CSc1nnc(CNc2ccc(F)cc2)o1	inactive: 99%
COc1ccc(CNC(=O)CCn2nc(C)c3c(C)n(-c4ccccc4)nc3c2=O)cc1OC	active: -2%
Cc1cccc(C)c1Nc1c(-c2ccsc2)nc2ccccn12	inactive: 34%
Cc1cccn2c(=O)c(/C=C(\C#N)c3nc4ccccc4n3C)c(Oc3ccc(Br)cc3)nc12	inactive: 68%
Cc1ccc(NC(=O)CCCn2nc(C)c3c(C)n(-c4ccccc4)nc3c2=O)cc1Cl	inactive: 73%
O=C(CN1CCN(c2ccc(Cl)cc2)CC1)Nc1ccc(F)cc1F	inactive: 100%
CN1C(=O)c2ccccc2Sc2ccc(NC(=O)Nc3ccccc3F)cc21	inactive: 117%
CCOC(=O)CC1CN(C)CCN1C (stereo unspecified)	inactive: 85%

SMILES	survival
CCOc1ccc(N(CC(=O)Nc2ccc(F)cc2F)S(=O)(=O)c2c(C)[nH]c(=O)[nH]c2=O)cc1	inactive: 72%
COc1ccc(CN(CCC(c2ccc3c(c2)OCO3)c2ccccc2OC)C(C)=O)cc1 (stereo unspecified)	active: 8%
CCOCCCn1c(=N)c(S(=O)(=O)c2ccc(C)cc2)cc2c(=O)n3cccc(C)c3nc21	inactive: 77%
COc1ccc(CNC(=O)C(=O)NCC(c2cccs2)S(=O)(=O)c2ccc(F)cc2)cc1 (stereo unspecified)	inactive: 80%
CCOC(=O)c1ccc(OCC2c3cc(OC)c(OC)cc3CCN2C(=O)Cc2ccc(F)cc2)cc1 (stereo unspecified)	inactive: 54%
CC(=O)N1CCCc2cc(S(=O)(=O)N(C)CC(=O)Nc3ccc(F)cc3Cl)ccc21	inactive: 70%
CCc1nn(CC(=O)NC(C)C)c(=O)c2cc3cc(F)ccc3n12	inactive: 71%
Cc1ccc(NC(=O)c2c(Nc3ccccc3C)sc(C(=O)c3ccccc3)c2N)cc1	inactive: 72%
S=C(NC12CC3CC(CC(C3)C1)C2)N1CCOCC1	inactive: 113%
O=C(Cn1c(SCC(=O)Nc2ccc(F)cc2)nc2ccccc21)NCc1ccc(F)cc1	inactive: 63%
Cc1ccc(Cl)cc1NC(=O)c1cnc(N2CCCCC2)c2ccccc12	inactive: 90%
CCOC(=O)C1CCN(S(=O)(=O)c2cc(Br)cc3c2N(C(=O)CC)CC3)CC1	inactive: 64%
CCCC(=O)NCC1(N(C)C)CCCCC1	inactive: 89%
CC(C)Oc1ccc(C2CC(=O)N(Nc3ccccc3)C2=O)cc1 (stereo unspecified)	inactive: 95%
N#Cc1ccc(C(=O)Nc2cc3nn(-c4ccccc4)nc3cc2Cl)c(F)c1	inactive: 130%
CCOc1cc2sc(N3CCC(C(=O)Nc4ccc(C)cc4C)CC3)nc2cc1Br	inactive: 83%
COc1ccccc1NC(=O)C(=O)NCC(c1ccc2c(c1)OCO2)N1CCN(C)CC1 (stereo unspecified)	inactive: 81%
CCN1CCN(c2ncc3c(n2)CCN(Cc2cc(F)cc(F)c2)C3)CC1	inactive: 57%
COc1ccc(-c2nc3scc(CCNS(=O)(=O)c4ccc(C)cc4)n3n2)cc1	inactive: 81%
COc1ccc(NC(=O)C(=O)NCCc2csc(-c3ccc(Cl)cc3)n2)cc1OC	inactive: 91%
Cc1ccc2[nH]c(=O)c(CC3CC(c4ccccc4)=NN3C(=O)CCC(=O)O)cc2c1 (stereo unspecified)	inactive: 99%
Cc1cccc(C(=O)Nc2c(-c3ccccc3)nc3cc(C)ccn23)c1	inactive: 48%
CC(C)N(C(=O)Cn1nnc2c(cnn2-c2ccccc2)c1=O)C(C)C	inactive: 113%

SMILES	survival
Cn1c(=NC(=O)c2ccc(S(=O)(=O)N3CCCc4ccccc43)cc2)sc2cc(F)ccc21	inactive: 78%
CC(C)OCCCn1c(=O)c2ccccc2n2c(-c3ccc(F)cc3)nnc12	inactive: 94%
COc1ccc(S(=O)(=O)N(CC(=O)Nc2ccccc2Br)Cc2ccccc2)cc1	inactive: 77%
CCOC(=O)COc1ccc([N+](=O)[O-])cc1-c1ccnc2cc(-c3ccc(Cl)cc3)nn12	inactive: 65%
O=C(O)C1C(c2ccccc2)C(C(=O)N2CCCCC2)C1c1ccccc1 (stereo unspecified)	inactive: 103%
COC(=O)c1ccc(NC(=O)CSc2nc(=O)[nH]c3c2CCCC3)cc1	inactive: 71%
CCOC(=O)c1cnc2[nH]c3ccccc3n2c1=O	inactive: 103%
CCc1ccc(CN(Cc2ccco2)c2cnc(S(C)(=O)=O)nc2C(=O)Nc2cccc(C)c2)cc1	inactive: 87%
CN(C)c1ccc(C(CNC(=O)c2ccccc2)N2CCc3ccccc32)cc1 (stereo unspecified)	inactive: 82%
O=C(c1cn(CC(=O)N2CCOCC2)c2ccccc12)C1CC1	inactive: 92%
COc1ccccc1CNc1nc(-c2ccco2)nn1S(=O)(=O)c1ccc2ccccc2c1	inactive: 116%
COCC(=O)N(CCc1ccccc1)Cc1cc2cccc(C)c2n2nnnc12	inactive: 115%
CCC1=Nc2cc(C(=O)NCCCOC)ccc2Sc2ccc(Br)cc21	inactive: 66%
O=C(c1cc2nc(-c3ccccc3)cc(-c3ccccc3)n2n1)N1CCCC1	inactive: 100%
CC(C)CC(=O)Nc1cccc(-c2nc3ccccc3[nH]2)c1	inactive: 95%
Cc1cccc(-c2noc(-c3ccccc3OCC(=O)Nc3ccc([N+](=O)[O-])cc3)n2)c1	inactive: 84%
Cc1ccc(SCCNC(=O)CN(c2ccccc2)S(=O)(=O)N(C)C)cc1	inactive: 69%
Cc1ccc(S(=O)(=O)NC(=O)NC(C)(C)C)cc1	inactive: 87%
CNC(=O)C1CCC(Cn2c(=O)c3sccc3n(CC(=O)NCc3ccccc3)c2=O)CC1 (stereo unspecified)	active: 0%
COCCCNC(=O)c1oc2c(c1C)-c1nn(Cc3ccccc3Cl)cc1CC2	inactive: 84%
COC(=O)C1(c2ccccc2)NC(c2cccs2)C2C(=O)N(C)C(=O)C21 (stereo unspecified)	inactive: 110%
Cc1ccccc1C(=O)Nc1sc2c(c1C(=O)NCc1ccco1)CCC(C(C)(C)C)C2 (stereo unspecified)	inactive: 88%
